# Among all 220,000 compounds or so, about 2,300 (1%) were called active. Inconclusive means that the source gave no clear call. Such entries were picked first, then a sample of the others. Calls follow the shape of the dose curve; as a rule, active = well fitted inhibition curve with a large enough effect; inconclusive = small, poorly fitted or top-dose-only effect, or effect the other way; inactive = no such curve, though single readings can be large or run the other way. Where the call is inconclusive, the potency comes from a doubtful curve fit.
# Molecular target: Neuropeptide S receptor (Homo sapiens) (UniProt Q6W5P4)
# Test: qHTS Assay for Antagonists of the Neuropeptide S Receptor: cAMP Signal Transduction; also: nearly all actives have a fitted effect of over 50% in size
# Conditions: CHO-NPSR cells, cAMP TR-FRET, antagonist mode; activity change, negative = inhibition: at 38.3 µM (top of the series) unless noted
# % is scaled to controls: 0 for no effect and ±100 for the full control effect; potency is read from the fitted curve at half-maximal effect; tags tell the direction and shape of the fitted curve.
# Chain of UniProt Q6W5P4 (Q6W5P4 whole entry, looked up): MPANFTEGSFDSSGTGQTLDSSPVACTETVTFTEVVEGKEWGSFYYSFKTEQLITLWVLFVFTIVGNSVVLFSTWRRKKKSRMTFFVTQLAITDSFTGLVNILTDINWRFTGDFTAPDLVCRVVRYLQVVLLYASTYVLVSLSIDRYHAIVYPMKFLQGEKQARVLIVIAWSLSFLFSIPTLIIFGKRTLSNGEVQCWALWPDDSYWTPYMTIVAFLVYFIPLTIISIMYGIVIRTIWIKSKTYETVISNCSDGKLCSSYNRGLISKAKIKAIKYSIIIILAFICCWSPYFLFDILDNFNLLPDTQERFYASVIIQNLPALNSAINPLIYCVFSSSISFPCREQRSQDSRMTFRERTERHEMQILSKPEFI
Structure (SMILES),Potency,"activity change, negative = inhibition"
Cc1cccc2cc(CN(Cc3cccs3)Cc3nnnn3Cc3ccccc3)c(=O)[nH]c12,"inconclusive: 10 µM [inhibitor, single point]",–
CN1CCN(c2nc(-c3ccc(Br)cc3)nnc2-c2ccccc2)CC1,"inconclusive: 12.6 µM [inhibitor, single point]",–
CCOc1ccc2c(c1)c(C(C)=O)c(C)n2-c1ccccc1,"inconclusive: 10 µM [inhibitor, partial curve]",–
CC(=O)Nc1ccc(NC(=O)c2sc3nc4c(c(-c5ccc(C)cc5)c3c2N)CCC4)cc1,"inconclusive: 10 µM [inhibitor, partial curve]",–
O=C(c1ccc(Oc2ccc(C(F)(F)F)cn2)cc1)N1CCN(c2ccccc2)CC1,"inconclusive: 12.6 µM [inhibitor, single point]",–
COc1ccc(N(CC(=O)Nc2cccc(C)c2)S(=O)(=O)c2c(C)n[nH]c2C)cc1,"inconclusive: 20 µM [inhibitor, single point]",–
Nc1nonc1-n1nnc(C(=O)N/N=C/C=C/c2ccccc2)c1CSC1=NCCS1,"inconclusive: 5.01 µM [activator, full curve]",–
O=C1CCC(C(=O)OCC(=O)N2N=C3/C(=C/c4ccccc4)CCCC3C2c2ccccc2)N1 (stereo unspecified),"inconclusive: 12.6 µM [inhibitor, single point]",–
CCCC(=O)NC(c1cccs1)c1cc(Cl)c2cccnc2c1O (stereo unspecified),"inconclusive: 25.1 µM [activator, single point]",–
O=C1CSC(c2cn(-c3ccccc3)nc2-c2ccccc2)N1Cc1ccco1 (stereo unspecified),"inconclusive: 12.6 µM [inhibitor, single point]",–
COC(=O)CCCCCCCCC(O)C[N+]1(C)CCOCC1 (stereo unspecified),–,inactive: 8.42%
COCCCNC(=O)c1cccn2c(=O)c3cc4ccccc4cc3nc12,"inconclusive: 10 µM [inhibitor, single point]",–
CNC(=S)N(Cc1ccc(OC)cc1)C1CC(=O)N(c2ccc(Cl)cc2)C1=O (stereo unspecified),"inconclusive: 10 µM [inhibitor, single point]",–
COc1ccc(-n2c(=O)cc(N3CCN(c4ccccc4)CC3)[nH]c2=O)cc1,"inconclusive: 3.16 µM [inhibitor, partial curve, poor fit]",–
NS(=O)(=O)c1ccc(N/N=C/c2cn(-c3ccccc3)nc2-c2cccs2)cc1,"inconclusive: 12.6 µM [inhibitor, single point]",–
Cc1ccc(-c2nnc(N3CCC(C)CC3)c3ccccc23)cc1C,"inconclusive: 10 µM [inhibitor, single point]",–
COc1cccc(N2CCN(CC(=O)c3c[nH]c4ccc(OC)cc34)CC2C)c1 (stereo unspecified),–,inconclusive: -30.3% [inhibitor] [at 46.1 µM]
CSc1nccc(Oc2ccc(C#N)cc2)n1,–,inactive: 7.12%
O=[N+]([O-])c1cc(Br)c(O)c(/C=N/Nc2nc3ccccc3s2)c1,"inconclusive: 10 µM [inhibitor, single point]",–
COc1cccc(N(C(=O)c2cccs2)c2nc3ccccc3s2)c1,"inconclusive: 25.1 µM [inhibitor, single point]",–
O=C(Nc1nccs1)c1ccccc1[N+](=O)[O-],–,inactive: 16%
CCCC(=O)C1=C(O)C(C(=O)OC)C(C)(C)CC1=Nc1ccccc1 (stereo unspecified),"inconclusive: 5.01 µM [inhibitor, single point]",–

Structure (SMILES),Potency,"activity change, negative = inhibition"
CCCc1cc(C(=O)N2CCN(c3ccccc3C)CC2)cs1,"inconclusive: 20 µM [inhibitor, partial curve, poor fit]",–
CC(C)(C)c1cc(CN2CCCC(O)C2)c(O)c(C(C)(C)C)c1 (stereo unspecified),"inconclusive: 12.6 µM [inhibitor, single point]",–
O=C(C(Cc1ccccc1)n1cccc1)N1CCN(c2ccccc2)CC1 (stereo unspecified),–,inactive: -20.2% [at 46.1 µM]
CC/C(=N\OC(=O)c1ccc(OC(C)C)cc1)c1ccc(C)cc1,"inconclusive: 12.6 µM [inhibitor, single point]",–
N#Cc1cn(-c2ccccc2)nc1-c1ccco1,"inconclusive: 7.94 µM [activator, partial curve, poor fit]",–
CCOC(=O)C(Cc1ccc(OC)c([N+](=O)[O-])c1)NC(=O)CCC(=O)Nc1ccc(C)cc1 (stereo unspecified),–,inactive: -7.75%
COc1ccc(C2c3ccc4ccccc4c3Oc3ncn(CCN4CCOCC4)c(=N)c32)cc1OC (stereo unspecified),–,inactive: 56.6%
CN1/C(=C/C(=O)c2nc(S(C)(=O)=O)ncc2Cl)C(C)(C)c2ccccc21,active: 5.01 µM,–
CC(/C=C/c1cccc(Oc2ccc(F)cc2)c1)N(O)C(N)=O (stereo unspecified),"inconclusive: 3.16 µM [activator, single point]",–
CCn1c(SCC(=O)Nc2ccc(-c3nc4ccc(C)cc4s3)cc2)nnc1-c1ccccc1,"inconclusive: 10 µM [inhibitor, single point]",–
CC(C)(C)OC(=O)NCCCCCNC(=O)c1[nH]cnc1C(=O)N[C@@H](CCCCNC(=O)OC(C)(C)C)C(=O)OC(C)(C)C,"inconclusive: 5.01 µM [activator, partial curve]",–
CN(CCOc1ccc(Cl)cc1)c1ccc(S(=O)(=O)N2CCCCC2)cn1,"inconclusive: 7.94 µM [inhibitor, partial curve, poor fit]",–
CC[n+]1c(-c2ccc(C)cc2)csc1Nc1c(C)n(C)n(-c2ccccc2)c1=O,"inconclusive: 25.1 µM [inhibitor, single point]",–
CCOc1ccc(C(CC(=O)O)NC(=O)C(Sc2ccccc2)c2ccccc2)cc1 (stereo unspecified),–,inactive: -24.7%
Cn1c(=O)c2c(ncn2CC(=O)Nc2ccccc2Sc2ccccc2)n(C)c1=O,"inconclusive: 1.58 µM [inhibitor, partial curve, poor fit]",–
CN(C)c1nc(N)nc(-c2cccnc2)n1,"inconclusive: 0.0251 µM [inhibitor, full curve, poor fit]",–
CCOC(=O)C1=C(CSCc2ccccc2)NC(=O)NC1c1cc(C)ccc1C (stereo unspecified),"inconclusive: 10 µM [activator, partial curve]",–
Nc1nc(CSc2nc3ccccc3s2)nc(N2CCCCC2)n1,"inconclusive: 10 µM [inhibitor, single point]",–
CC(C)CN1C(=S)SC(C)(C)C1n1oc(=O)n(-c2ccc(Cl)cc2)c1=O (stereo unspecified),"inconclusive: 12.6 µM [inhibitor, partial curve]",–
O=C(COC(=O)CCc1ccc(S(=O)(=O)N2CCOCC2)cc1)Nc1ccc(Cl)cn1,"inconclusive: 12.6 µM [inhibitor, partial curve]",–
Cc1ccc(C(=O)N/C(=C\c2ccc(F)cc2)C(=O)NCc2ccncc2)cc1,–,inactive: 17.4%
COc1ccc(S(=O)(=O)Nc2cc(C(=O)NCCCN3CCOCC3)ccc2N2CCOCC2)cc1,–,inactive: 0.608%

Structure (SMILES),Potency,"activity change, negative = inhibition"
CCCc1ccc(-c2cc(NC(=O)CSc3nnc(N)s3)n(-c3ccccc3)n2)cc1,–,inactive: -20.5% [at 46.1 µM]
CC(=O)Oc1cccc(N2C(=O)c3ccccc3C2=O)c1,–,inactive: 9.1%
CCOC(=O)c1c(C)nc2sc3c(=O)n(-c4ccc(OC)cc4)nnc3c2c1-c1ccc(OC)cc1,–,inactive: -13.6% [at 46.1 µM]
COc1ccc(/C=C2\SC(=O)N(CC(=O)Nc3cccnc3)C2=O)cc1OC,–,inactive: -7.22%
COc1ccc(OC)c(C(=O)/C=C/c2ccccc2C(F)(F)F)c1,"inconclusive: 12.6 µM [inhibitor, single point]",–
CCC1(C)Cc2c(sc3nc(SCC(=O)c4ccccc4)[nH]c(=O)c23)CO1 (stereo unspecified),"inconclusive: 12.6 µM [inhibitor, single point]",–
COc1ccccc1NS(=O)(=O)c1cc(NC(C)=O)ccc1N1CCCCC1,"inconclusive: 25.1 µM [inhibitor, single point]",–
COCc1cc(C)nc(SCC(=O)N2CCC(C)CC2)c1C#N,"inconclusive: 12.6 µM [inhibitor, single point]",–
CC(C)(c1ccccc1)c1ccc(OCCCN2CCNCC2)cc1,–,inactive: -4.74%
COc1ccc(-c2nnc3c4ccccc4c(C)nn23)cc1,"inconclusive: 15.8 µM [inhibitor, partial curve, poor fit]",–
CN(C)C(=O)c1ccc2c(c1[N+](=O)[O-])C(=O)c1ccccc1C2=O,–,inactive: -9.62% [at 46.1 µM]
O=c1cc(O)c2sc3nc(C(F)(F)F)c4c(c3c2[nH]1)CCCCC4,–,inactive: -20.2%
CC(C)OC(=O)CSc1nnc(C2CCCCC2)n1N,"inconclusive: 15.8 µM [activator, single point]",–
Cc1cccc(CSCCNC(=O)CSCc2ccc([N+](=O)[O-])cc2)c1,"inconclusive: 20 µM [inhibitor, single point]",–
O=C1N/C(=N/S(=O)(=O)Cc2ccccc2)S/C1=C/c1ccc2c(c1)OCO2,"inconclusive: 25.1 µM [inhibitor, single point]",–
COC(=O)C(Cc1ccc(OC(=O)c2ccccc2C)cc1)N1Cc2ccccc2C1=O (stereo unspecified),"inconclusive: 25.1 µM [inhibitor, single point]",–
CCCC(=O)NC(=S)Nc1cccc(Cl)c1N1CCCC1,"inconclusive: 12.6 µM [inhibitor, single point]",–
CCOc1cc2c3c(c1)C1(C(=O)N3C(C)(C)C=C2C)C(C#N)=C(N)Oc2cc(O)ccc21 (stereo unspecified),"inconclusive: 10 µM [inhibitor, single point]",–
CNC(=O)c1c(NC(=O)c2ccc(S(=O)(=O)N3CCCc4ccccc43)cc2)sc2c1CCN(C)C2,–,inactive: -32.9%
CC(=O)Nc1ccc(Oc2cc(C#N)c(C#N)cc2N2CCCCCC2)cc1,"inconclusive: 7.94 µM [inhibitor, partial curve]",–
O=c1oc2ccccc2c(O)c1/C=C1\C=Nc2ccccc21,"inconclusive: 25.1 µM [inhibitor, single point]",–
Cc1nn(C)c(C)c1/C=C(/C(=O)C(C)C)n1cncn1,–,inactive: 32.1%

# Reference: PubChem BioAssay AID1461 (National Center for Advancing Translational Sciences (NCATS), 2008)
